# Assay results reported in the supplement of paper PMC10369915.
# The other results are listed elsewhere or left out. Rule as the data show it: active = 3.2 or more and inactive = the rest. Only a few entries rise above the background.
# Legend:
# Assay in all cases: enrichment score (SH2-bound / input frequency) (ratio); bacterial display of known human phosphotyrosine sites (pTyr-Var adds point mutants) read by sequencing; higher = stronger binding; tyrosines were phosphorylated by kinases first
# Settings in all cases: peptide library: pTyr-Var
# SHP2 C-SH2 domain E139D = target: SHP2 C-SH2 domain E139D
# [1] = target: SHP2 C-SH2 domain wild-type
# SHP2 N-SH2 domain L43F = target: SHP2 N-SH2 domain L43F
# SHP2 N-SH2 domain T42A = target: SHP2 N-SH2 domain T42A
# SHP2 N-SH2 domain T52S = target: SHP2 N-SH2 domain T52S
# [2] = target: SHP2 N-SH2 domain wild-type
# 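Also: displayed peptides selected on beads carrying the immobilized SH2 domain, with library peptides lacking any tyrosine serving as negative controls.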
Binder,enrichment score (SHP2 C-SH2 domain E139D),enrichment score [1],enrichment score (SHP2 N-SH2 domain L43F),enrichment score (SHP2 N-SH2 domain T42A),enrichment score (SHP2 N-SH2 domain T52S),enrichment score [2]
KQQEIYQELTQ [CD209_Y239],inactive: 0.896,inactive: 1.1,inactive: 0.999,inactive: 0.778,inactive: 0.872,inactive: 1.04
KQQEIYQEVTQ [CD209_Y239_L242V],inactive: 0.71,inactive: 0.599,inactive: 0.725,inactive: 0.624,inactive: 0.787,inactive: 0.795
RNDRVYQPLRD [CD3D_Y149_Q147R],inactive: 0.478,inactive: 0.546,inactive: 0.593,inactive: 0.494,inactive: 0.728,inactive: 0.575
RWHEGYRQTPK [CD44_Y412],inactive: 2.33,inactive: 1.67,inactive: 2.47,inactive: 1.94,inactive: 2.21,inactive: 1.75
RWHEGYRQTPR [CD44_Y412_K417R],inactive: 2.72,inactive: 1.89,inactive: 2.27,inactive: 2.43,inactive: 2.41,inactive: 2.13
RDHFGYRQSVT [CD55_Y245_YF],inactive: 0.952,inactive: 0.855,inactive: 0.925,inactive: 0.779,inactive: 0.794,inactive: 1
GEHSIYCTVNN [CD55_Y266],inactive: 1.09,inactive: 1.05,inactive: 0.705,inactive: 0.744,inactive: 0.736,inactive: 1.14
ENELTYYCCKK [CD59_Y86],inactive: 0.725,inactive: 0.528,inactive: 0.574,inactive: 0.503,inactive: 0.58,inactive: 0.529
ENELTYFCFKK [CD59_Y86_C89Y_YF],inactive: 0.789,inactive: 1.09,inactive: 0.841,inactive: 0.866,inactive: 0.735,inactive: 1.11
NELTFYCFKKD [CD59_Y87_C89Y_YF],inactive: 0.465,inactive: 0.474,inactive: 0.476,inactive: 0.569,inactive: 0.511,inactive: 0.612
PLLEYYWDIFT [CDAN1_Y713_R714W],inactive: 2.81,active: 3.48,active: 3.68,inactive: 2.86,active: 3.2,inactive: 2.64
PLLEFYWDIFT [CDAN1_Y713_R714W_YF],inactive: 0.953,inactive: 1.52,inactive: 1.49,inactive: 0.876,inactive: 1.03,inactive: 1.66
PLLEFYRDIFT [CDAN1_Y713_YF],inactive: 1.63,inactive: 1.28,inactive: 1.78,inactive: 1.76,inactive: 1.5,inactive: 1.97
SLQFEYVHYGG [CDC14A_Y591_S589F],inactive: 0.757,inactive: 0.613,inactive: 0.66,inactive: 0.629,inactive: 0.525,inactive: 0.563
SLQFEYVHFGG [CDC14A_Y591_S589F_YF],inactive: 1.74,inactive: 1.5,inactive: 1.58,inactive: 1.55,inactive: 1.99,inactive: 1.5
FGDTSYIPFRD [CDC14C_Y132_P131S],inactive: 0.66,inactive: 0.675,inactive: 0.644,inactive: 0.552,inactive: 0.628,inactive: 0.731
AGQEDYDRLRP [CDC42_Y64],inactive: 0.555,inactive: 0.494,inactive: 0.57,inactive: 0.46,inactive: 0.532,inactive: 0.687
AGQEDCDRLRP [CDC42_Y64_Y64C],inactive: 0.684,inactive: 0.767,inactive: 0.504,inactive: 0.519,inactive: 0.564,inactive: 0.585
YRNKPYISWPS [CDC42BPB_Y1638_S1633Y],inactive: 3,inactive: 2.64,inactive: 2.81,inactive: 2.32,inactive: 3.05,inactive: 2.54

Binder,enrichment score (SHP2 C-SH2 domain E139D),enrichment score [1],enrichment score (SHP2 N-SH2 domain L43F),enrichment score (SHP2 N-SH2 domain T42A),enrichment score (SHP2 N-SH2 domain T52S),enrichment score [2]
FRNKPYISWPS [CDC42BPB_Y1638_S1633Y_YF],active: 3.56,inactive: 2.74,active: 3.8,active: 3.29,active: 3.33,inactive: 2.82
DGMADCSDPSF [CDC5L_Y459_Y459C_YF],inactive: 0.932,inactive: 0.593,inactive: 0.507,inactive: 0.526,inactive: 0.601,inactive: 0.592
FSDPSYVKQME [CDC5L_Y464_YF],inactive: 0.519,inactive: 0.632,inactive: 0.517,inactive: 0.585,inactive: 0.491,inactive: 0.572
PIPAAYNRYDQ [CDC73_Y290],inactive: 0.753,inactive: 0.683,inactive: 0.778,inactive: 0.714,inactive: 0.929,inactive: 0.834
PIPAAYNKFDQ [CDC73_Y290_R292K_YF],inactive: 0.705,inactive: 0.753,inactive: 0.826,inactive: 0.713,inactive: 0.826,inactive: 0.772
PIPAAYNRFDQ [CDC73_Y290_YF],inactive: 0.525,inactive: 0.605,inactive: 0.79,inactive: 0.523,inactive: 0.645,inactive: 0.957
AAYNKYDQERF [CDC73_Y293_R292K],inactive: 0.866,inactive: 0.787,inactive: 0.727,inactive: 0.662,inactive: 0.823,inactive: 0.712
AAFNKYDQERF [CDC73_Y293_R292K_YF],inactive: 0.678,inactive: 0.608,inactive: 0.49,inactive: 0.68,inactive: 0.433,inactive: 0.598
PAVGIYNDNIN [CDCP1_Y707],inactive: 0.638,inactive: 0.502,inactive: 0.862,inactive: 0.801,inactive: 0.662,inactive: 0.62
RQRTAYFSLDT [CDH1_Y68],inactive: 1,inactive: 2.18,inactive: 0.736,inactive: 0.981,inactive: 0.672,inactive: 0.731
RQRTAYFSLNT [CDH1_Y68_D72N],inactive: 1.15,inactive: 2.51,inactive: 0.851,inactive: 0.859,inactive: 0.673,inactive: 0.605
KLADMYGGGKD [CDH1_Y876_E880K],inactive: 0.72,inactive: 0.609,inactive: 0.74,inactive: 0.69,inactive: 0.901,inactive: 0.687
ISKILYHIIKG [CDH17_Y489_S484I],active: 5.71,active: 4.45,active: 5.12,active: 3.98,active: 4.56,active: 4.43
NGTVTYAIIAG [CDH23_Y1672_V1675I],inactive: 1.76,inactive: 2.91,inactive: 1.23,inactive: 3.07,inactive: 1.14,inactive: 1.09
DIPIRYSIMGV [CDH4_Y205_T208M],inactive: 0.875,inactive: 1.1,inactive: 0.907,inactive: 2.44,inactive: 1.24,inactive: 0.735
EKQARYEIVVE [CDH5_Y223],inactive: 0.772,inactive: 0.849,inactive: 0.645,inactive: 0.682,inactive: 0.951,inactive: 0.793
EKQARYEIVEE [CDH5_Y223_V227E],inactive: 0.807,inactive: 0.778,inactive: 0.638,inactive: 0.754,inactive: 0.728,inactive: 0.852
IEEGTYGVAFR [CDK11B_Y449_V452A_YF],inactive: 0.921,inactive: 0.856,inactive: 0.752,inactive: 0.683,inactive: 0.642,inactive: 0.978
